# Reference: article PMC4336329 (PLoS ONE, 2015)
# Screen size: about 310,000 compounds; about 2,200 (0.71%) showed an effect of 50% or more. The effect is printed as a negative number. The list shows a part of the results.
# Biological target: human ether-à-go-go-related gene (hERG) potassium channel (human, UniProt Q12809)
# Experiment: primary screen, population patch clamp on CHO cells stably expressing hERG
# Chain of human ether-à-go-go-related gene (hERG) potassium channel (Q12809 whole entry, looked up): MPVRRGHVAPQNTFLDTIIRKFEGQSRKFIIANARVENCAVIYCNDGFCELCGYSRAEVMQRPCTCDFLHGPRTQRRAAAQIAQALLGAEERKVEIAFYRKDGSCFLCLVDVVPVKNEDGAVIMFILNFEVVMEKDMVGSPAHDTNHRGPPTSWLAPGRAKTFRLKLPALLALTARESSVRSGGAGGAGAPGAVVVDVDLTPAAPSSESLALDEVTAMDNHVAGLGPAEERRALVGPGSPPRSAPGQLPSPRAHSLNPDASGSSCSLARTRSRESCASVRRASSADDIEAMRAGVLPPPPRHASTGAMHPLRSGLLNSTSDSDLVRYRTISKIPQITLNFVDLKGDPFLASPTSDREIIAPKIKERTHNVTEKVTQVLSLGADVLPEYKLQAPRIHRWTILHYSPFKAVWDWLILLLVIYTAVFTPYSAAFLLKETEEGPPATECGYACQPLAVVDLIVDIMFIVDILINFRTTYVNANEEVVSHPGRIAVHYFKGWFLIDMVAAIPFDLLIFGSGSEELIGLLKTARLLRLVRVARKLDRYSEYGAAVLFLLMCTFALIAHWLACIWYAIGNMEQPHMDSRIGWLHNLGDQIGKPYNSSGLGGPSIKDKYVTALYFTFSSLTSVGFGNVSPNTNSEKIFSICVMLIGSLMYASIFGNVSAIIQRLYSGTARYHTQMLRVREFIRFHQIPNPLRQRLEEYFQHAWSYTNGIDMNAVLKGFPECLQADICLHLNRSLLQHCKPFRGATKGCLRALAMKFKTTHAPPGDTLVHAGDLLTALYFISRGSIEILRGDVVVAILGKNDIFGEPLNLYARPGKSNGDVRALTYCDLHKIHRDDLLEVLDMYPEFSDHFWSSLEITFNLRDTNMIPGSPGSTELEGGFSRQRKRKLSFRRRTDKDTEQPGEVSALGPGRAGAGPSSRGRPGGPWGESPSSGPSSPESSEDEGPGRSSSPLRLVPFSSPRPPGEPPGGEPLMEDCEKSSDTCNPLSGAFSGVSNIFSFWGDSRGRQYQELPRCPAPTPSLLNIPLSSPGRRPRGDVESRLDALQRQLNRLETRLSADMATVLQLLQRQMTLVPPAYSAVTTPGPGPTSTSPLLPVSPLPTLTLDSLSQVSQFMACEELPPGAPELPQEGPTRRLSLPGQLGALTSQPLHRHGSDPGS
row,Compound,"hERG current change (%, negative = inhibition) at 1uM [%]"
1,NC(=O)CN1C(=O)C(=O)N(Cc2cccc(Cl)c2)C1=O,7.6
2,Cc1onc(-c2ccccc2)c1C(=O)Nc1ccc2c(c1)OCCO2,14.3
3,COCC1CCN(Cc2cn[nH]c2-c2cc3ccccc3o2)C1 (stereo not shown),0.607
4,COc1cc2c(cc1OC)C(C)N(C(=O)c1sccc1C)CC2 (stereo not shown),9.97
5,CN1C(=O)C(C)(C)c2cc(S(=O)(=O)NCc3ccc(Cl)cc3)ccc21,0.513
6,Cc1ccc(S(=O)(=O)N2c3ccc(S(N)(=O)=O)cc3CC2C)cc1 (stereo not shown),2.33
7,CCOc1cc(NC(=S)Nc2ccc(Cl)cc2)c(OCC)cc1NC(C)=O,9.06
8,O=C(CCCN1CCC(O)(c2ccc(Br)cc2)CC1)c1ccc(F)cc1,-75.7
9,O=C(Nc1nnc(-c2ccncc2)s1)C1CCCO1 (stereo not shown),21.4
10,O=C(CSCc1cccc(CSCC(=O)Nc2ccccc2)n1)Nc1ccccc1,-59.7
11,N#Cc1ccc(COC(=O)Cn2nnc(-c3ccccc3)n2)cc1,7.61
12,Nc1ccc2c(c1)C(=O)N(c1cccc3ccccc13)C2=O,12.6
13,CC(/C=N/NC(=O)c1cc(-c2ccccc2)nc2ccccc12)=C\c1ccco1,5.45
14,COc1ccccc1-c1nn(-c2ccccc2)cc1C(=O)N1CCc2ccccc2C1,3.17
15,CCc1nnc(NC(=O)[C@@H](NC(=O)c2ccc(OC)cc2)C(C)C)s1,5.59
16,CC(O)[C@@]1(O)CC[C@H]2[C@@H]3CC[C@H]4C[C@@H](O)CC[C@]4(C)C3=CC[C@@]21C (stereo partly shown),2.66
17,O=C(CN1CCN(C(=O)c2ccccc2)CC1)Nc1ccc(Br)cn1,-72.1
18,Cc1cccc(C)c1NC(=O)c1cc(-c2ccccn2)nc2ccccc12,7.6
19,COC(=O)/C(=N/Nc1cccc(C)c1)N1CCCc2ccccc21,1.77
20,COc1ccc2cc(CCNC(=O)C3CCCC3)c(=O)[nH]c2c1,7.05
21,CC1CCN(CC(O)COCCC23CC4CC(CC(C4)C2)C3)CC1.Cl (stereo not shown),-7.11
22,CC(=O)Nc1ccc(NC2CCCCC2NS(=O)(=O)c2ccc(Cl)cc2)cc1 (stereo not shown),12

row,Compound,"hERG current change (%, negative = inhibition) at 1uM [%]"
1,O=C(NNC(=O)c1ccc(F)c(S(=O)(=O)N2CCOCC2)c1)c1ccc(Br)cc1,0.208
2,CCOC(=O)c1nn(-c2ccccc2)c(C#N)c1N,3.93
3,O=C(CCC1COc2ccccc2O1)Nc1ccc(Cl)cn1 (stereo not shown),3.03
4,O=C(Oc1ccc2ccccc2c1)c1ccco1,-0.657
5,O=C(CSc1nnc(-c2ccc(OC(F)F)cc2)o1)N1CCOCC1,-16.1
6,Cc1nc2ccc(C(=O)N3CCCC(CO)(Cc4ccc(F)cc4F)C3)cc2nc1C (stereo not shown),3.69
7,COC/C=C/C1=CC(=O)C[C@H](c2ccc3c(c2)OCO3)C1,3.61
8,CSc1nc(-c2ccc(Cl)cc2)nn1C(=O)c1ccccc1,1.81
9,O=C(N/C(=C/c1cccnc1)C(=O)N1CCCCCC1)c1ccccc1,6.71
10,COc1ccc(C(=O)c2c(C)c3ccccc3n2CC(O)CNC(C)C)cc1.Cl (stereo not shown),-0.594
11,O=C(c1ccc(S(=O)(=O)NCC2CCCO2)cc1)N1CCN(c2ccccc2)CC1 (stereo not shown),9.22
12,COCCN1Cc2cccc(C(=O)Nc3cc(C)cc(C)c3)c2C1=O,10.6
13,Fc1ccc(CSc2ncnc3nc[nH]c23)cc1,13.1
14,O=C(CC1SC(=NCC2CCCO2)NC1=O)Nc1cc([N+](=O)[O-])ccc1Cl (stereo not shown),-0.884
15,COc1ccc(OC)c(C2CC(c3c(-c4ccccc4)c4cc(Cl)ccc4[nH]c3=O)=NN2S(C)(=O)=O)c1 (stereo not shown),7.3
16,CCOc1ccc2oc(C(=O)N3CC(C)OC(C)C3)c(C)c2c1 (stereo not shown),21.5
17,O=C(/C(=N\O)n1cncn1)c1ccc(Cl)cc1Cl,15.2
18,CN(Cc1ccccc1)C(=O)c1nc2ccccn2c1CNCCOc1cccnc1,4.94
19,COc1ccccc1N=C1SC(C(=O)Nc2cccc(Cl)c2Cl)C(N)=C1C(N)=O (stereo not shown),14.1
20,O=C(Nc1cccnc1)C1OCCc2ccccc21 (stereo not shown),4.87
21,O=C1NC(=O)C2C1C(c1cccs1)NN2Cc1ccccc1 (stereo not shown),13.7
